Measured values from article PMC7229227.
No constants are given. Whether binding was seen depends on the method and setting. Binding seen in cells or lysates may run through a third protein. Some entries that bind do so weakly or less than the wild type. Where a sequence is shown, tags or fusion partners need not be part of it. Each block holds one molecule with its values, some of them ahead of it.

Sequences of proteins named here, by UniProt entry; tags and fusion partners are left off.
UniProt O94529: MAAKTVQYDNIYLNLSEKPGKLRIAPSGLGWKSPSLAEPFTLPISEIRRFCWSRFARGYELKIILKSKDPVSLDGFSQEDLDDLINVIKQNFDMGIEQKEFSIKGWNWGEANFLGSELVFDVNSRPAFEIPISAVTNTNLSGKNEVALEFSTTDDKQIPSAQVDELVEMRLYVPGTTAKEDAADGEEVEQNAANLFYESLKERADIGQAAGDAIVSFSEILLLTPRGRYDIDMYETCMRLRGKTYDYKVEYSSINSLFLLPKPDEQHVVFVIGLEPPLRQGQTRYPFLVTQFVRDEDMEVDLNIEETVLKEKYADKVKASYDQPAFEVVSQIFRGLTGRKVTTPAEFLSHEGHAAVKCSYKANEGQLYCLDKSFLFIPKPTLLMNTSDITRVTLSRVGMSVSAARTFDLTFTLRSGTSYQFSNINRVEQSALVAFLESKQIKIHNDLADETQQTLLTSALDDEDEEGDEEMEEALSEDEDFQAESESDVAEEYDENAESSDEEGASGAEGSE
UniProt O14187: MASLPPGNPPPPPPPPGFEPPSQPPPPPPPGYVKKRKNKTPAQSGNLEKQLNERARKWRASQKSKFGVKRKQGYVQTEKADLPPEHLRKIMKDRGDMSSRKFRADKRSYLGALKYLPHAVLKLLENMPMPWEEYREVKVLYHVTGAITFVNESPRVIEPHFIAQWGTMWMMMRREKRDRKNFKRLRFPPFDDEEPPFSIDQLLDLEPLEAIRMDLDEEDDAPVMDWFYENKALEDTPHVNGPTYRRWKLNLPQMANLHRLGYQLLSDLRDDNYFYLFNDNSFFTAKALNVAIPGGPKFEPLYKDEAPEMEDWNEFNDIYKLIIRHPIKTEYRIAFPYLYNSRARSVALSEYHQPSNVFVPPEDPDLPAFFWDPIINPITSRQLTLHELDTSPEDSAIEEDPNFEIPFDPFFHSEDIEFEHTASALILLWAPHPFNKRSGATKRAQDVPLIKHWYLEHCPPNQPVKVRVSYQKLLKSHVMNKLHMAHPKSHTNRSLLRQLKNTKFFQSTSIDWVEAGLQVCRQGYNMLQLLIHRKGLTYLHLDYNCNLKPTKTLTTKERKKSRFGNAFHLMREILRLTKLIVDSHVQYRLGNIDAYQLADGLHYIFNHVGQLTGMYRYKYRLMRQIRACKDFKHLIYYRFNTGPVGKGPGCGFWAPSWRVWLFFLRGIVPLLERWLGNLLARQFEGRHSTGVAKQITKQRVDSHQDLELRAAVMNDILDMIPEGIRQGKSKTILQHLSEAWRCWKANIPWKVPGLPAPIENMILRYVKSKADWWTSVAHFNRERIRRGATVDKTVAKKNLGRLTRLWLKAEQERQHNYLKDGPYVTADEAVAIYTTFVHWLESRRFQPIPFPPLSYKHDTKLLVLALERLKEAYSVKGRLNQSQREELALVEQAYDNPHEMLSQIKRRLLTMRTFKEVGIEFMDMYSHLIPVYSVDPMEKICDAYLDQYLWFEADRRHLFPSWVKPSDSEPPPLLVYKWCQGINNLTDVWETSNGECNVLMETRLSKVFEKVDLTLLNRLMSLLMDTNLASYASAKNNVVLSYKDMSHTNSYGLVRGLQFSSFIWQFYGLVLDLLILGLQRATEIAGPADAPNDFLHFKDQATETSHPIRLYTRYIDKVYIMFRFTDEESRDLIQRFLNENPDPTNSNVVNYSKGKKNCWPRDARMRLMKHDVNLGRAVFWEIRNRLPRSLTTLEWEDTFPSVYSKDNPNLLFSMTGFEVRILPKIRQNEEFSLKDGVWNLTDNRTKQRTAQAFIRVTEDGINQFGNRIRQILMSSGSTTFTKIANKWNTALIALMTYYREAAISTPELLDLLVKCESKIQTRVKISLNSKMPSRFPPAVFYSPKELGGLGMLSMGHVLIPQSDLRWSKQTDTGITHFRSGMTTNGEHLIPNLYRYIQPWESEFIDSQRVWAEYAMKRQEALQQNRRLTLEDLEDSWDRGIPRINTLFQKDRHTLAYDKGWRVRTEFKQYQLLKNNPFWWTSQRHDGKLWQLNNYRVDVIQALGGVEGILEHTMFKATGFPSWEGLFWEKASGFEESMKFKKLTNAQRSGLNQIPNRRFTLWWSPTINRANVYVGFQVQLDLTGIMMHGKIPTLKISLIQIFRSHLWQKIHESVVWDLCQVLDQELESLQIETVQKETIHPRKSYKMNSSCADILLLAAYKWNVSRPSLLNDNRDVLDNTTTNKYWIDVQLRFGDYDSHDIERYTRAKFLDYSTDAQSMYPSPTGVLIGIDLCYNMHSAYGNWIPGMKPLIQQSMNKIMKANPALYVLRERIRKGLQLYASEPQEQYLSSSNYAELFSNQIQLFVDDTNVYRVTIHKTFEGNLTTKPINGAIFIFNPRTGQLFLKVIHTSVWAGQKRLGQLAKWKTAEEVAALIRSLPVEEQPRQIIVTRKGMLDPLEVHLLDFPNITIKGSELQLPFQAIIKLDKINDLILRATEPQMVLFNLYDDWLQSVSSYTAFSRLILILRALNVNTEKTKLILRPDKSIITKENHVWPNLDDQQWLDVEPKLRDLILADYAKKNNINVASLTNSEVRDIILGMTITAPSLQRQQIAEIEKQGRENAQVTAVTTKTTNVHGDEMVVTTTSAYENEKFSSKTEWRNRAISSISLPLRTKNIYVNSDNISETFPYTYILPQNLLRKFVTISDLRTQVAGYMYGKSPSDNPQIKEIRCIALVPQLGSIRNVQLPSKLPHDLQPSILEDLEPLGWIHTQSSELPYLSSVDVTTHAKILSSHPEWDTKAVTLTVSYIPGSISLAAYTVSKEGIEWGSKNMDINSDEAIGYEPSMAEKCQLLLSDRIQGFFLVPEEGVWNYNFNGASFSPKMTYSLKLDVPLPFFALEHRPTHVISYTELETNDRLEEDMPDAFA

Legend:
Pir2-GFP (S. pombe) [1] = target: T1, Pir2-GFP (S. pombe) (UniProt O94326); test: co-IP; as the S. pombe co-IP, proteins bound to beads washed and treated with 50 U/ml Benzonase (DNA and RNA nuclease) for 30 min
T1 sequence: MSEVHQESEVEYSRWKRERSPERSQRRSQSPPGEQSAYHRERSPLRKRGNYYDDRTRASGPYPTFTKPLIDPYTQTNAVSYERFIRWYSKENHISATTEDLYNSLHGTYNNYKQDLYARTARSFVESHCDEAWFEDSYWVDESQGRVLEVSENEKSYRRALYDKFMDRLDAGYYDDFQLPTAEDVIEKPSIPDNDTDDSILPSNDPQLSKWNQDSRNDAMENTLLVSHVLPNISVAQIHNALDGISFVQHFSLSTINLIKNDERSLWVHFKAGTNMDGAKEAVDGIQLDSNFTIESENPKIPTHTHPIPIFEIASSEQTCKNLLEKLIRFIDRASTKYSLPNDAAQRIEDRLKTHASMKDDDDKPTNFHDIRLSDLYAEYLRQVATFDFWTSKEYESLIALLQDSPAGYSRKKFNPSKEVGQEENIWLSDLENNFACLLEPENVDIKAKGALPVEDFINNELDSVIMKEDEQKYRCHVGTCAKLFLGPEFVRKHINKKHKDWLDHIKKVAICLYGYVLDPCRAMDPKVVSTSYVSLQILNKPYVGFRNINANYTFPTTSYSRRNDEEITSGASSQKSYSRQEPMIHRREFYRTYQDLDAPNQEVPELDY

Pir2-GFP (S. pombe) [2] = target: T1, Pir2-GFP (S. pombe); test: co-IP; S. pombe lysates (50 mM Tris-HCl pH8, 150 mM NaCl, 10% glycerol, 1% NP-40, 5 mM EDTA) incubated with anti-GFP on protein A magnetic beads or IgG sepharose, 2 h, 4 °C; western blot; Hrr1-TAP/Pir2-GFP also in the cwf10-1 mutant
Pir2-GFP (S. pombe) [3] = target: T1, Pir2-GFP (S. pombe); test: co-sedimentation; S. pombe lysate (20 mM Tris pH 7.5, 137 mM NaCl, 10% glycerol, 0.5% NP40, 2 mM EDTA), 150 µg on a linear 20–50% glycerol gradient, 81,400 × g, 19 h; fractions by western blot
Pir2-GFP (S. pombe) [4] = target: T1, Pir2-GFP (S. pombe); test: as above; remark: listed apart in the source
Pir2-GFP (S. pombe) [5] = target: T1, Pir2-GFP (S. pombe); test: co-IP; S. pombe lysates (50 mM Tris-HCl pH8, 150 mM NaCl, 10% glycerol, 1% NP-40, 5 mM EDTA) incubated with anti-GFP on protein A magnetic beads or IgG sepharose, 2 h, 4 °C; western blot; Hrr1-TAP/Pir2-GFP also in the cwf10-1 mutant; remark: listed apart in the source

Molecule: Pob3-MYC (from UniProt O94529 1-512)
binding (Pir2-GFP (S. pombe) [1]): no binding (condition: with Benzonase (50 U/ml, 30 min))
binding (Pir2-GFP (S. pombe) [2]): binds

Molecule: Spp42-HA (from UniProt O14187 1-2363)
binding (Pir2-GFP (S. pombe) [3]): no binding

B1: Cwf10-FLAG (protein, UniProt O94316 1-984)
chain: MMEEDLYDEFGNYIGPENEEDEEELFPQAPSPTIAQVPSFEEVIPDEELEDVERAEEMALSHLEPQNAVVLHEDKQYYPSAEEVYGSNVDIMVQEQDTQPLSQPIIEPIRHKRIAIETTNVPDTVYKKEFLFGLLTGTDDVRSFIVAGHLHHGKSALLDLLVYYTHPDTKPPKRRSLRYTDTHYLERERVMSIKSTPLTLAVSDMKGKTFAFQCIDTPGHVDFVDEVAAPMAISDGVVLVVDVIEGVMINTTRIIKHAILHDMPIVLVLNKVDRLILELRLPPNDAYHKLRHVIDEVNDNICQISKDLKYRVSPELGNVCFASCDLGYCFTLSSFAKLYIDRHGGIDVDLFSKRLWGDIYFDSKTRKFAKQSLDGSGVRSFVHFILEPLYKLHTLTISDEAEKLKKHLSSFQIYLKPKDYLLDPKPLLQLICASFFGFPVGFVNAVTRHIPSPRENAARKASQSYIGPINSSIGKAILEMSREESAPLVMHVTKLYNTVDANNFYAFARVYSGQVKKGQKVKVLGENYSLEDEEDMVVAHIAEICVPCARYRLHVDGAVAGMLVLLGGVDNSISKTATIVSDNLKDDPYIFRPIAHMSESVFKVAVEPHNPSELPKLLDGLRKTNKSYPLSITKVEESGEHTIFGTGEMYMDCLLYDLRTLYSEIEIRVSDPVARFCETAVDTSSIKCFSDTPNKKNRITMVVEPLEKGISNDIENGKVNINWPQKRISEFFQKNYDWDLLASRSIWAFGPDDRGTNILRDDTLSTDVDKNVLNSVKEYIKQGFQWGTREGPLCDETIRNVNFRLMDVVLAPEQIYRGGGQIIPTARRVCYSSFLTASPRLMEPVYMVEVHAPADSLPIIYDLLTRRRGHVLQDIPRPGSPLYLVRALIPVIDSCGFETDLRVHTQGQAMCQMVFDHWQVVPGDPLDKSIKPKPLEPARGSDLARDFLIKTRRRKGLVEDVSTTRYFDQEMIDSLKEAGVVLSL
binding (Pir2-GFP (S. pombe) [4]): binds
binding (Pir2-GFP (S. pombe) [5]): binds

B5: Cwf21 (protein, UniProt O14161 1-293)
chain: MSYNGIGLPTPRGSGTNGYVMRNLSHVKKYDKNTNLQSNRNAKALEKRVQDPSISEHECRRQIESKLLLYREQLLEEVSSQHSTDAAASDSNTNFGTENPKPPKAIIKDEQSQSKTKSLDEADVEILVQKYREQLLKELQLQKSTEKGKNFESILQPQKRKETRGFHSKNDDDGRLEERDDLRSSVDDDYYDYPRYSERKSLNSKRHVDNYNENRRRHYDSYSSYDELERRRSSNESYSRRSELPRRDYNRHDERERYSYHRRRERSNSPSYTKNESIPVVDRDSSPEGGEIV
binding (Pir2-GFP (S. pombe) [4]): binds

Continued, values first:

binding (Pir2-GFP (S. pombe) [4]): binds
B2: Cbc1 (FLAG-tagged) (protein, UniProt O14253 1-780)
chain: MSSYRGSTRPRKRTREGENYGFRPHRGNSQELLAARIKKDITFLADPRGNSVAADDINYVAMSLSREANDPETISTILDCIQTTAFIIPVKIPHLATLIIRASLRVPLILEKAAAYFCLQYFTNLNSFLYYEAKVDLRMLICMSFALQPGTLKPLFSLLADAISKETKPSVWGDNFLRIILINLPYFIAANNDLGKKDFANEILDQCEIYVRHRKSSITLSNPLSIHDNLSEEELDLLYKQLILSRENDFTFPYISQPWKFFESDFVHIVPVSPSIPEWTFQPTPQQNELPSFKRFFELFNNFEIRTTPDASDVAASIFRDISVDVINHLEFNRVEAAQVLTDLDVYFTYKTFALRGTPVNELPNLDPSESRWKAEDIIVEAVLGELLGSQNTTYKPVYYHSLLIECCRIAPKILAPTFGRVIRLMYTMSSDLPLQTLDRFIDWFSHHLSNFNFHWKWNEWIPDVELDDLHPKKVFMRETITRELILSYYTRISDSLPEELRCLLGEQPSGPNFVYENETHPLYQQSSQIIEALRLHKPLEELDIILQSEEIQNSETSAVRLVMSCAYSLGSRSFSHALNVFEKHLNTLKHFSRKSLDSEIEVVDELFSFWKLQPFNAVMWLDKMLNYSIISITSIIEWLIKQDVTIWSRSYTWSLVNTTFNKLAARLRRSVSNKEDSSLINEANEEKEIVTNLLLSALRALISENAENIWVSHWLNLMLKYVESNFLSVKKDTIEEANEPVQENTSEEQEDTKMQPVDAVDEQPSENNQTAADATNEEK

binding (Pir2-GFP (S. pombe) [4]): no binding
B3: Cdc5-HA (protein, UniProt P39964 1-757)
chain: MVVLKGGAWKNTEDEILKAAVSKYGKNQWARISSLLVRKTPKQCKARWYEWIDPSIKKTEWSREEDEKLLHLAKLLPTQWRTIAPIVGRTATQCLERYQKLLDDLEAKENEQLGLISGEGAEAAAPVNDPNSRLRFGEAEPNLETLPALPDAIDMDEDEKEMLSEARARLANTQGKKAKRKDREKQLELTRRLSHLQKRRELKAAGINIKLFRRKKNEMDYNASIPFEKKPAIGFYDTSEEDRQNFREKREADQKIIENGIRNNEMESEGRKFGHFEKPKPIDRVKKPNKDAQEEKMRRLAEAEQMSKRRKLNLPSPTVSQDELDKVVKLGFAGDRARAMTDTTPDANYSTNLLGKYTQIERATPLRTPISGELEGREDSVTIEVRNQLMRNREQSSLLGQESIPLQPGGTGYTGVTPSHAANGSALAAPQATPFRTPRDTFSINAAAERAGRLASERENKIRLKALRELLAKLPKPKNDYELMEPRFADETDVEATVGVLEEDATDRERRIQERIAEKERLAKARRSQVIQRDLIRPSVTQPEKWKRSLENEDPTANVLLKEMIALISSDAINYPFGNSKVKGTANKVPDLSNEEIERCRLLLKKEIGQLESDDYIQFEKEFLETYSALHNTSSLLPGLVIYEEDDEDVEAAEKFYTNDIQRDLAKKALECNKLENRVYDLVRSSYEQRNFLIKKISHAWKALQTERKNLTCYEFLYNQERLALPNRLEAAEIELSKMQQIEAYAQQDYARVTGQN

binding (Pir2-GFP (S. pombe) [5]): binds
B4: Clr3-MYC (enzyme, UniProt P56523 1-687)
chain: MLASNSDGASTSVKPSDDAVNTVTPWSILLTNNKPMSGSENTLNNESHEMSQILKKSGLCYDPRMRFHATLSEVDDHPEDPRRVLRVFEAIKKAGYVSNVPSPSDVFLRIPAREATLEELLQVHSQEMYDRVTNTEKMSHEDLANLEKISDSLYYNNESAFCARLACGSAIETCTAVVTGQVKNAFAVVRPPGHHAEPHKPGGFCLFNNVSVTARSMLQRFPDKIKRVLIVDWDIHHGNGTQMAFYDDPNVLYVSLHRYENGRFYPGTNYGCAENCGEGPGLGRTVNIPWSCAGMGDGDYIYAFQRVVMPVAYEFDPDLVIVSCGFDAAAGDHIGQFLLTPAAYAHMTQMLMGLADGKVFISLEGGYNLDSISTSALAVAQSLLGIPPGRLHTTYACPQAVATINHVTKIQSQYWRCMRPKHFDANPKDAHVDRLHDVIRTYQAKKLFEDWKITNMPILRDSVSNVFNNQVLCSSNFFQKDNLLVIVHESPRVLGNGTSETNVLNLNDSLLVDPVSLYVEWAMQQDWGLIDINIPEVVTDGENAPVDILSEVKELCLYVWDNYVELSISKNIFFIGGGKAVHGLVNLASSRNVSDRVKCMVNFLGTEPLVGLKTASEEDLPTWYYRHSLVFVSSSNECWKKAKRAKRRYGRLMQSEHTETSDMMEQHYRAVTQYLLHLLQKARPTSQ
